Assay [1] addresses human collagen type III (human) (UniProt P02461). Put plainly: collagen-binding ELISA, value related to VWF:Ag. A general note: In an ELISA, binding on a coated surface is turned into a signal by an enzyme label.
Assay [2] has the same target. The assay can be described thus: collagen-binding ELISA (Technozym VWF:CBA), immobilized human collagen type III.
Assay [3] has the same target. The assay can be described thus: collagen-binding ELISA, value related to the rVWF protein.

UniProt P02461, sequence (P02461 154-1221 limits assumed): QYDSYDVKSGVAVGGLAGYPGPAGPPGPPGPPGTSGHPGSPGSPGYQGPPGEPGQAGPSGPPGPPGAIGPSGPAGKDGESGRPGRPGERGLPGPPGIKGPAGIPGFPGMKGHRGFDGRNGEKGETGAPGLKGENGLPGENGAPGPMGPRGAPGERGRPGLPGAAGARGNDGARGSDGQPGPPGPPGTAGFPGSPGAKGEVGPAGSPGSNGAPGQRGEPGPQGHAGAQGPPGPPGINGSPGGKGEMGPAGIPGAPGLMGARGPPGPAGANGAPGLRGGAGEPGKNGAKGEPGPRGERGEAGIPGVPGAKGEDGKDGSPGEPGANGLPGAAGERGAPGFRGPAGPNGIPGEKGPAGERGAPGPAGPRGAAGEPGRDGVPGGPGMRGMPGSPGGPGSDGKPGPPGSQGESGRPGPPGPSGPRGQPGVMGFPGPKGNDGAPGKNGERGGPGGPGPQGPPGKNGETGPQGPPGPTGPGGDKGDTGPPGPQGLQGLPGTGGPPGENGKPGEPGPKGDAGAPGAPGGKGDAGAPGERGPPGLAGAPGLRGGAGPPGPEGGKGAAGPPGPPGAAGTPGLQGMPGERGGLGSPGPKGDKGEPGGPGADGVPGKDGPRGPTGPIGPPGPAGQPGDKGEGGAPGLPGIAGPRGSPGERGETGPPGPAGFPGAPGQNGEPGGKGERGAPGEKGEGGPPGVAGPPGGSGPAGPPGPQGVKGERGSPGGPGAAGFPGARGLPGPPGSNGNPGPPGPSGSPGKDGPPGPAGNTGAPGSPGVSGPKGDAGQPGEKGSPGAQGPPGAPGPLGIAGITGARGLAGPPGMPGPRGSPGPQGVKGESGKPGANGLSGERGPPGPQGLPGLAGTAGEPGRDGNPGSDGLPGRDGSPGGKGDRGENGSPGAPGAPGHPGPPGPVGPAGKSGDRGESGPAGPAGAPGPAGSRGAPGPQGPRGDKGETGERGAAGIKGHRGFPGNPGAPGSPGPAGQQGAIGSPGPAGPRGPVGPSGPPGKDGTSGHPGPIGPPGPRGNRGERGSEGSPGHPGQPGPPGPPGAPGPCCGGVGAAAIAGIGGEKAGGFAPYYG

Take “native rVWF 133P1 (a stretch of the chain, letters omitted)”: the VWF:CB (U/IUAg) in assay [1] worked out at 1.16 U/IUAg. Moreover, the VWF:CB (U/ml) in assay [2] came out at 63.5 U/ml. The substance further had a VWF:CB (U/mg) in assay [3] of 185 U/mg.

Values taken from patent US20080234193A1.
